Assay results taken from PubChem BioAssay AID504706 (National Center for Advancing Translational Sciences (NCATS), 2011).
Among all 320,000 compounds or so, about 200 (0.062%) were called active. This list was built around the results that the source calls inconclusive (neither active nor inactive); the mix of calls is not that of the screen. Calls follow the shape of the dose curve; as a rule, active = well fitted activation curve with a large enough effect; inconclusive = small, poorly fitted or top-dose-only effect; inactive = no such curve, though single readings can be large or run the other way. Potencies of inconclusive entries are left out as doubtful fits.

Assay: qHTS assay for re-activators of p53 using a Luc reporter; also: nearly all actives have a fitted effect of over 45% in size
Conditions: H1299 p53-A138V BP100-luciferase reporter, luminescence, 24 h; series mostly up to 92.2 µM
Source text: The p53 tumor suppressor plays a key role in suppression of tumorigenesis and in human carcinogenesis. It is frequently found inactivated in human cancers, mainly by point mutation. These point mutations are found in a wide variety of human cancers and a majority of them affect the DNA binding domain of the protein. The point mutations either alter native p53 conformation or abolish DNA contact. Additionally, cancer cells with p53 mutations are more resistant to chemo-radiation therapies. In order to find activators to reactivate this important protein, a cell-based screen for p53-dependent luciferase-reporter expression was developed. A p53-null H1299 lung cancer cell line was stably co-transfected with a temperature sensitive p53 mutant, p53-A138V, and a p53-responsive BP100-luciferase reporter. This cell model has previously been characterized in a gene chip profiling experiment for p53 activation. By lowering the culture temperature from 37 deg C (mutant p53 conformation) to 32 deg C (w.t. p53 conformation), a 30-60 fold increase in activation of luciferase activity is observed. At assay temperate, 37 deg C, basal reporter expression is very low and after the addition of detection reagent, a luminescent read-out is carried out. NIH Chemical Genomics Center [NCGC] NIH Molecular Libraries Probe Production Centers Network [MLPCN] MLPCN Grant: DA031088-01A1 Assay Provider (PI): Yi Sung, University of Michigan at Ann Arbor
5ul of 1000 cells per well are dispensed in all wells except column 4, into white solid-bottom TC-treated Kalypsys plates. The cells are kept in Opti-MEM and supplemented with 10% FBS and dispensed using a Multidrop (Thermo). Then using the Kalypsys pin-tool, 23nl of compounds are pinned. The compounds are starting concentration at 10mM, with 1:5 dilution, 4 points, and the control compound nocodazole is pinned in column 1 at 25mM, 1:3 dilution, in duplicate, 25mM nocodazole is pinned in column 2. Please note, all concentrations are working concentrations. 5ul of 1pM purified luciferase enzyme is dispensed using the Kalypsys dispenser in column 4. Plates are incubated for 24 hrs at 37 deg C, 5% CO2, and 95% humidity. Then 4ul of the detection reagent Amplite (ABD Bioquest) is added using the Kalypsys dispenser. Plates are incubated for 10 min at ambient room temperature and are then read on the ViewLux (Perkin Elmer) using a clear filter for a luminescent read-out.
Potency is read from the fitted curve at half-maximal effect; tags tell the direction and shape of the fitted curve.

SMILES | Potency
Clc1nc(CN2CCCCC2)nc2sc3c(c12)CCC3 | inconclusive [activator, single point]
S=C(NCCC1=CCCCC1)Nc1ccccc1 | inconclusive [activator, partial curve, poor fit]
COc1cc(/C=C2/C(=N)N3N=C(CC(=O)N4CCOCC4)SC3=NC2=O)ccc1OCc1ccc(F)cc1 | inconclusive [activator, partial curve, poor fit]
CCCCOc1ccc(NC(=O)c2cnc(C)cn2)cc1 | inconclusive [activator, single point]
CC1(C)CC(=O)C=C(c2cccc3c2sc2ccccc23)C1 | inconclusive [activator, full curve, poor fit]
c1cc(-c2cc3cc4c(cc3cn2)OCO4)cs1 | inconclusive [activator, full curve, poor fit]
C#CCSc1nnc(-c2ccc(C)cc2)o1 | inconclusive [activator, full curve, poor fit]
O=C(Nc1ccc(SC(F)F)cc1)c1ccccc1F | inconclusive [activator, partial curve, poor fit]
CC(Cc1ccco1)NC(=O)c1ccc(C(F)(F)F)cc1 (centres undefined) | inconclusive [activator, partial curve, poor fit]
Cc1[nH]n(-c2ccccc2)c(=O)c1/C=N/Nc1nncc(-c2ccccc2)n1 | inconclusive [activator, full curve, poor fit]
N#C/C(=C\c1ccc[nH]1)S(=O)(=O)c1ccccc1 | inconclusive [activator, single point]
O=C(Nc1nnc(-c2ccco2)s1)C1CCCCC1 | inconclusive [activator, partial curve, poor fit]
O=C(NN/C(=N/S(=O)(=O)c1ccc(Cl)cc1)c1ccccc1)c1cccc(Cl)c1 | inconclusive [activator, full curve, poor fit]
C/C(=N\Nc1ccccc1C(=O)O)c1ccncc1 | inconclusive [activator, full curve, poor fit]
O=C(Nc1ccc(OCC(=O)N2CCOCC2)cc1)c1cccc(Cl)c1 | inactive
O=C(CCc1ccccc1)NC(c1cccs1)c1cc(Cl)c2cccnc2c1O (centres undefined) | inconclusive [activator, full curve, poor fit]
CCN1CCN(c2nc(SC)nc3sc4c(c23)CC(C)(C)OC4)CC1 | inactive
O=C(Nc1nc(COc2ccccc2)cs1)c1ccccc1F | inconclusive [activator, partial curve, poor fit]
COc1cn(-c2ccccc2)nc1C(=O)Nc1ccccc1 | inactive
O=C(Oc1ccc(Oc2ccccc2)cc1)N1CCC(O)CC1 | inconclusive [activator, full curve, poor fit]
Cc1ccc(-c2cc(-c3cccs3)[nH]n2)c(O)c1 | inconclusive [activator, partial curve, poor fit]
Clc1ccc(-c2nc3n(n2)Cc2ccccc2-3)cc1 | inconclusive [activator, partial curve, poor fit]
O=C(Nc1cccc(-c2cn3ccccc3n2)c1)c1ccccc1 | inactive

SMILES | Potency
Nc1c(C(=O)Nc2ccc3c(c2)OCCO3)nnn1Cc1ccc(Cl)cc1 | inconclusive [activator, partial curve, poor fit]
O=C(Oc1ccc2c(c1)OCO2)c1ccc(F)cc1Cl | inconclusive [activator, partial curve, poor fit]
CN(Cc1ccccc1)C(=O)COC(=O)C1CCN(S(=O)(=O)c2ccc(Cl)c(C(F)(F)F)c2)CC1 | inactive
COC(=O)C(NC(=O)c1ccco1)(Nc1nc(C)cs1)C(F)(F)F (centres undefined) | inactive
[O-]/[N+](=C\c1ccc(OC(F)F)cc1)c1ccccc1 | inconclusive [activator, partial curve, poor fit]
CCCC(=O)Nc1sc(C)c(-c2ccc(OC)cc2)c1C#N | inconclusive [activator, partial curve, poor fit]
COc1cc2cccc(OC)c(=O)c2c(O)c1OC | inconclusive [activator, partial curve]
Nc1nc(CN2CCN(c3cccc(Cl)c3)CC2)nc(N2CCCc3ccccc32)n1 | inactive
OC(COc1ccc(OCc2ccccc2)cc1)CN1CCOCC1 (centres undefined) | inactive
Cc1ccc2c(CN3CCC(C)CC3)cc(=O)oc2c1 | inconclusive [activator, full curve, poor fit]
O=c1[nH]c(COc2ccccc2)nc2ccccc12 | inconclusive [activator, full curve, poor fit]
CCn1c(=NC(=O)c2cccc(N3C(=O)CCC3=O)c2)sc2c(C)ccc(OC)c21 | inactive
COC(=O)c1c(C)[nH]c(/C=N/Nc2ccccc2)c1C | inactive
O=C(O)Cc1ccc(NC(=O)c2ccc(NC(=O)C3CC3)cc2)cc1 | inactive
Cc1ccc(F)cc1NC(=O)N1CCN(c2ccnc3cc(Cl)ccc23)CC1 | inactive
CC(=O)NC12CC3CC(C1)CC(C(=O)N1CCN(S(=O)(=O)c4ccccc4[N+](=O)[O-])CC1)(C3)C2 | inconclusive [activator, single point]
CCCCCOc1ccc(CSc2ncn[nH]2)cc1 | inconclusive [activator, partial curve, poor fit]
COc1cc(Cl)ccc1OCc1cc(C(=O)NCC(C)(C)N2CCOCC2)no1 | inconclusive [activator, single point]
C=CCn1c(C)cc(C(=O)CSc2nnc(NC(C)C)s2)c1C | inactive
N#CNC(=Nc1cccc(F)c1)SCc1ccccc1F | inconclusive [activator, single point]
N/C(=N\OC(=O)C1CCCCC1)c1cccc([N+](=O)[O-])c1 | inconclusive [activator, partial curve, poor fit]
O=C1c2cccc3cccc(c23)C(=O)N1CCN1CCN(C(=S)Nc2ccc(Cl)cc2)CC1 | inactive
Cc1ccc(NC(=S)/N=C(\N)Nc2nc(C)c3ccccc3n2)cc1C | inconclusive [activator, full curve, poor fit]

SMILES | Potency
Cc1ccc(C(=O)Nc2ccc3ccccc3n2)cc1 | inconclusive [activator, full curve, poor fit]
COc1ccc2sc(-c3ccc(S(C)(=O)=O)cc3)c(C(=O)NCCc3c[nH]c4ccccc34)c2c1 | inactive
COc1cccc(NC(=O)CN(C)C(=O)Cn2c(=O)oc3ccccc32)c1 | inactive
N#Cc1c(/N=C/c2ccco2)sc2c1CCCCC2 | inconclusive [activator, partial curve, poor fit]
CCc1nc(N2CCCC2)c(C#N)c2c1CCCC2 | inactive
O=C(NC1CCSc2ccccc21)c1cc(S(=O)(=O)N2CCOCC2)ccc1Cl (centres undefined) | inactive
COc1ccc2cc(CN(C(=O)Nc3ccccc3OC)C3CCCC3)c(=O)[nH]c2c1 | inactive
O=C(NCCN1C(=O)C2C3C=CC(C3)C2C1=O)Nc1ccc(Br)cc1 (centres undefined) | inconclusive [activator, partial curve, poor fit]
CCOc1ccc2nc(N3CCCC(C(=O)N4CCN(CC)CC4)C3)sc2c1 (centres undefined) | inconclusive [activator, partial curve, poor fit]
Cc1c(C(=O)Nc2nc3ccccc3[nH]2)oc2ccccc12 | inconclusive [activator, full curve, poor fit]
CC(NS(=O)(=O)c1ccc2c(c1)C(=O)c1cc(S(=O)(=O)NC(C)C(=O)O)ccc1-2)C(=O)O (centres undefined) | inactive
CN(Cc1ccccc1)C(=S)NC(=O)C1CCCCC1 | inconclusive [activator, partial curve, poor fit]
Cc1cnc(NC(=O)COc2ccccc2)s1 | inconclusive [activator, partial curve, poor fit]
N#Cc1cc2c(nc1SCC(=O)Nc1nccs1)CCCCC2 | inconclusive [activator]
c1cc(-c2cccs2)nc(-c2cccs2)c1 | inconclusive [activator, single point]
O=C(/C=C/c1ccco1)Nc1sc2c(c1C(=O)O)CCC2 | inconclusive [activator, partial curve, poor fit]
Cc1ccc(C)n1-c1ccc(C(=O)Nc2ccccc2F)cc1 | inconclusive [activator, full curve, poor fit]
COc1ccc2c(c1)C(=O)c1ccccc1CO2 | inconclusive [activator, partial curve, poor fit]
O=c1[nH]c2cc3c(cc2cc1C(c1nnnn1C1CCCCC1)N1CCSCC1)OCCO3 (centres undefined) | inactive
CCOc1ccccc1-c1nc(-c2ccc(NC(=O)c3ccc(Br)o3)cc2)no1 | inconclusive [activator, partial curve, poor fit]
COc1ccc(/C=C/C(=O)NCCc2nc3ccccc3[nH]2)cc1 | inactive
O=c1oc2ccccc2c(O)c1C=NCc1ccccn1 | inactive
O=C(CSc1nc2ccccc2s1)NCCOc1ccccc1 | inconclusive [activator, single point]
